Out of some 220,000 compounds screened, about 16,000 (7.3%) were called active. The shares of active, inactive and inconclusive entries below differ from those in the screen. The call rests on the fitted dose curve; in most records, active means well fitted inhibition curve with a large enough effect (not every such curve was filed as active); inconclusive means small, poorly fitted or top-dose-only effect, or another doubt; inactive means no such curve, though single readings can be large or run the other way. Potencies of inconclusive entries are left out as doubtful fits.
The compounds below were run against Aldehyde dehydrogenase 1A1 (Homo sapiens) (UniProt P00352) (assay: qHTS Assay for Inhibitors of Aldehyde Dehydrogenase 1 (ALDH1A1)). Details: Purified ALDH1A1, NADH fluorescence, propionaldehyde substrate; series mostly up to 75.3 µM.
Chain of UniProt P00352 (P00352 whole entry, looked up): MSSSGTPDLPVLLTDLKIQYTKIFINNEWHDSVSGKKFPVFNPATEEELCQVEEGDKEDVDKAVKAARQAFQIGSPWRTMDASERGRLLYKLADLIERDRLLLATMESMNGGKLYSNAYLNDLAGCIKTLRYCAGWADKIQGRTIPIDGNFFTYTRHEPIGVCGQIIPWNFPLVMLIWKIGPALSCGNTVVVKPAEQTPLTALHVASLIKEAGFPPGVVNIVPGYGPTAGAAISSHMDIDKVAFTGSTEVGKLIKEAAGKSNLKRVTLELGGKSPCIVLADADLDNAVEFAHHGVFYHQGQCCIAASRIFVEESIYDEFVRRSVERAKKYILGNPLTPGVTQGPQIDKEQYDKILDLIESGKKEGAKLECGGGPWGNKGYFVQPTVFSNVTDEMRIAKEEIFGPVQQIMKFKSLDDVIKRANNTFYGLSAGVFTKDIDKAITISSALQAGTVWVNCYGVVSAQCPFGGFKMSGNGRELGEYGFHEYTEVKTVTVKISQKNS
In the case of `C/C(=N\NS(=O)(=O)c1ccccc1)c1ccc2c(c1)OCCO2`, the Potency is reported as inconclusive [inhibitor, single point].
`C=CCNCCCOc1ccc(C(C)(C)c2ccccc2)cc1` was tested, and the Potency was inconclusive [inhibitor, partial curve].
In the case of `S=C(N/N=C/c1ccc(Cl)cc1)N1CCOCC1`, the Potency is reported as inconclusive [inhibitor, single point].
`COc1ccccc1Cc1noc(-c2cc(Cl)ccc2OC)n1` was tested, and the Potency was inconclusive [inhibitor, partial curve].
With `CCn1c(SCc2ccc(C(=O)OC)o2)nnc1-c1c[nH]c2ccccc12` the Potency was inconclusive [inhibitor, single point].
For `S=c1[nH]nc(-c2ccco2)n1/N=C/c1ccc(Br)s1`, the Potency was inconclusive [inhibitor, single point].
With `Cn1c(CNC(=O)c2ccco2)nnc1SCC(=O)c1ccccc1` the Potency was “inactive”.
For `Clc1ccccc1-c1nc(NC2CCNCC2)c2ccccc2n1`, the Potency was “inactive”.
With `Nc1cc2c(nc3c4ccccc4c(N)cc3[n+]2-c2cccc3ccccc23)c2ccccc12` (tested in a mixture with another compound) the Potency was inconclusive [inhibitor, single point].
`COc1cc(/C=N/N=C2/C(=O)Nc3ccccc32)cc(OC)c1O` was tested, and the Potency was “inactive”.
With `COc1ccc2c(=O)c3c(=O)n(Cc4ccco4)c(-c4cc(OC)c(OC)c(OC)c4)nc3oc2c1` the Potency was “inactive”.
`CC(=O)c1cnc2c(-c3ccccc3)c(C(F)(F)F)nn2c1C` was tested, and the Potency was inconclusive [inhibitor, single point].
For `COc1ccc(-n2c(SC(C)C(=O)Nc3ncc(Cl)cc3Cl)nc3ccccc32)cc1` (configuration not stated), the Potency was inconclusive [inhibitor, single point].
For `Cc1ccc(NC(=O)N2CCC(C(=O)NCc3ccc(F)cc3)CC2)cc1`, the Potency was “inactive”.
With `O=C(O)CC(NC(=O)C(c1ccccc1)c1ccccc1)c1ccc(F)cc1` (configuration not stated) the Potency was “inactive”.
`O=C1CN2NC(=S)N(c3ccc(Cl)cc3)C2=CN1c1ccc(Cl)cc1` was tested, and the Potency was “inactive”.
For `O=C(CN1CCC(O)(c2ccc3c(c2)OCO3)CC1)OC1CCCCC1`, the Potency was “inactive”.
`C=CCNC(=O)COc1ccccc1C#N` was tested, and the Potency was “inactive”.
In the case of `O=C(c1ccc(F)cc1)N1CCN(c2ccc([N+](=O)[O-])c(N3CCOCC3)c2)CC1`, the Potency is reported as inconclusive [inhibitor, partial curve].
`COc1cc(OC)cc(C(=O)NCc2n[nH]c(=S)n2-c2ccccc2OC)c1` was tested, and the Potency was inconclusive [inhibitor, single point].
`Cc1cccc(COC[C@H](Cc2ccccc2)N2CCN(C(=O)c3cccc(C)c3)CCC2=O)c1` was tested, and the Potency was inconclusive [inhibitor, single point].
In the case of `COc1ccc(CC(=O)OCc2cc3ccccc3[nH]c2=O)cc1`, the Potency is reported as inconclusive [inhibitor, single point].
For `Cc1cc(Sc2nc(N)ncc2[N+](=O)[O-])ncn1`, the Potency was inconclusive [inhibitor, partial curve, poor fit].
For `CSc1ccccc1-c1nnc(-c2ccc(Cl)c(Cl)c2)o1`, the Potency was inconclusive [inhibitor, partial curve].
For `Cc1oc(-c2ccccc2)cc1C(=O)Nc1ccc2ccccc2c1`, the Potency was active: 31.6 µM.
`CCc1ccc(S(=O)(=O)c2nnn3c2nc(NCCNC(C)=O)c2ccccc23)cc1` was tested, and the Potency was inconclusive [inhibitor, partial curve].
In the case of `COc1ccc(C(=O)N2CCN(c3nnnn3-c3ccccc3)CC2)cc1OC`, the Potency is reported as active: 15.8 µM.
With `N#CCCN1CCN(CCC#N)CC1` the Potency was “inactive”.
`Cc1ccc(CNC(=O)c2cc3c(=O)n(C)c4ccccc4c3n2C)cc1` was tested, and the Potency was “inactive”.
`COc1ccc(-c2cc(C3CCN(Cc4ccc([N+](=O)[O-])cc4)CC3)[nH]n2)cc1` was tested, and the Potency was “inactive”.
For `COC(=O)c1ccsc1NC(=O)C1=COCCO1`, the Potency was inconclusive [inhibitor, single point].
For `CCN(CC)CC(=O)N1c2ccccc2Sc2ccc(Cl)cc21`, the Potency was “inactive”.
With `COc1ccc(C(=O)Nc2cccc(C(C)=O)c2)c(OC)c1OC` the Potency was inconclusive [inhibitor, partial curve].
`COc1ccc(S(=O)(=O)N2C3CCC2CC(NC(=O)C2CC2)C3)cc1` (configuration not stated) was tested, and the Potency was inconclusive [inhibitor, single point].
For `CSc1nsc(N/N=C/c2ccccc2)c1C#N`, the Potency was inconclusive [inhibitor, partial curve].
With `COCCn1nnnc1C(c1ccccn1)N1CCN(c2cccc(C)c2C)CC1` (configuration not stated) the Potency was inconclusive [inhibitor, single point].
`CCNc1ncc2nc(C)c(=O)n(Cc3cccs3)c2n1` was tested, and the Potency was inconclusive [inhibitor, partial curve].
With `CC1(C)CC(=O)C2=C(C1)N=C1SCCC(=O)N1C2c1ccccc1` (configuration not stated) the Potency was inconclusive [inhibitor, single point].
In the case of `CC(=O)Nc1ccc(Nc2cc(-c3ccccc3)nc3ncnn23)cc1`, the Potency is reported as “inactive”.
`COCCNc1nc2nonc2nc1N1CCCC1c1nccs1` (configuration not stated) was tested, and the Potency was inconclusive [inhibitor, single point].
`O=C(/C=C/c1ccc(Cl)cc1)NC(=S)Nc1ccc(N2CCOCC2)c(Cl)c1` was tested, and the Potency was active: 14.1 µM.
`Cc1cc(C(=O)CSc2nc3ccc(Cl)cc3[nH]2)c(C)n1C` was tested, and the Potency was inconclusive [inhibitor, partial curve].
`COCCCNC(=O)CSc1ccsc1[N+](=O)[O-]` was tested, and the Potency was inconclusive [inhibitor, single point].
With `Cc1sc2ncn(CC(=O)Nc3ccccc3F)c(=O)c2c1-c1ccccc1` the Potency was inconclusive [inhibitor, partial curve].
For `O=C(CSc1ccc(-c2cccnc2)nn1)N1CCCC1`, the Potency was “inactive”.
For `O=C(N/N=C/c1cccc([N+](=O)[O-])c1)C1CC(=O)N(c2ccc(Br)cc2)C1` (configuration not stated), the Potency was “inactive”.
For `CCOC(=O)N1CCN(C(=O)c2ccc3c(=O)n(Cc4ccccc4)c(=S)[nH]c3c2)CC1`, the Potency was inconclusive [inhibitor, partial curve].
`CC(=O)C1=C(O)CC(c2ccccc2)CC1=NCCc1c(C)[nH]c2ccc(C)cc12` (configuration not stated) was tested, and the Potency was inconclusive [inhibitor, single point].
In the case of `O=C(COC(=O)c1n[nH]c2ccccc12)NC(=O)NC12CC3CC(CC(C3)C1)C2`, the Potency is reported as “inactive”.
`Nc1cc(N)nc(SCC(=O)Nc2ccc3c(c2)OCCCO3)n1` was tested, and the Potency was inconclusive [inhibitor, single point].
In the case of `C[C@@H](C(=O)NCc1nc2ccccc2[nH]1)[C@@H]1C[C@@]1(C)[C@@H](NC(=O)OCc1ccccc1)c1ccccc1`, the Potency is reported as inconclusive [inhibitor, single point].
`Cc1ccc(C(=O)N(Cc2ccc3c(c2)OCO3)Cc2nc3ccccc3c(=O)[nH]2)cc1` was tested, and the Potency was inconclusive [inhibitor, single point].
`Clc1ccc(-c2cn3cccnc3n2)cc1Cl` was tested, and the Potency was inconclusive [inhibitor, partial curve].
In the case of `Oc1ccc(Cl)c2cccnc12`, the Potency is reported as “inactive”.
`CCOC(=O)CSc1nnc2c(n1)C1(C)CCC2C1(C)C` (configuration not stated) was tested, and the Potency was inconclusive [inhibitor, full curve].
With `CCC1CCCCN1Cc1nc2c(c(=O)n(C)c(=O)n2C)n1CCC(C)C` (configuration not stated) the Potency was inconclusive [inhibitor, full curve].
For `Cc1c(Cc2ccccc2)c(=O)oc2cc(OCC(N)=O)ccc12`, the Potency was inconclusive [inhibitor, partial curve].
In the case of `CCN(CC)C(=O)CSC1c2ccccc2C(=O)N1c1ccccc1` (configuration not stated), the Potency is reported as inconclusive [inhibitor, partial curve].
With `O=C(Cc1cccs1)Nc1ccc(S(=O)(=O)N2CCCC2)cc1` the Potency was active: 12.6 µM.
In the case of `Cc1ccc(Cl)cc1NC(=O)N(C)CCO`, the Potency is reported as “inactive”.
In the case of `CC(=O)Nc1sc2c(c1C(c1cccc(F)c1)N1CCN(CCO)CC1)CCCC2` (configuration not stated), the Potency is reported as “inactive”.
`COc1ccc(OCC(=O)Nc2ncc3c(n2)CC(C)(C)CC3=O)cc1` was tested, and the Potency was inconclusive [inhibitor, single point].
With `COc1cc(C(=O)NCC(c2ccco2)N2CCCC2)ccc1OCc1c(C)noc1C` (configuration not stated) the Potency was “inactive”.
For `Cn1c(CN2CCOCC2)nc2cc(NC(=O)COc3ccc([N+](=O)[O-])cc3)ccc21`, the Potency was inconclusive [inhibitor, single point].
In the case of `COCCn1c(SCC(=O)c2ccccc2)nc2c(c1=O)SCC2`, the Potency is reported as inconclusive [inhibitor, single point].
With `COc1cccc(-n2c(=S)[nH]c3c(oc4ccccc43)c2=O)c1` the Potency was “inactive”.
`CCOC(=O)C(C)/C(C)=N/NC(=O)CCC(=O)Nc1cc(C)ccc1C` (configuration not stated) was tested, and the Potency was “inactive”.
With `Cc1cc(=O)oc2cc(OCC(O)CN3CCN(c4ccccc4)CC3)ccc12` (configuration not stated) the Potency was inconclusive [inhibitor, partial curve].
`Cc1cccc(CNc2cc(-c3cccc(NS(C)(=O)=O)c3)ncn2)c1` was tested, and the Potency was inconclusive [inhibitor, single point].
With `COc1ccc(C(CNC(=O)c2ccc(S(=O)(=O)N3CCCC3)cc2)N(C)C)cc1OC` (configuration not stated) the Potency was inconclusive [inhibitor, single point].
For `Cc1nn(-c2ccc(Cl)cc2)c2sc(C(=O)c3c(N)n(C)c(=O)n(C)c3=O)cc12`, the Potency was inconclusive [inhibitor, partial curve].
With `CCn1c(SCC(=O)c2c[nH]c3ccccc23)nnc1-c1cccs1` the Potency was inconclusive [inhibitor, single point].

— PubChem BioAssay AID1030 (National Center for Advancing Translational Sciences (NCATS), 2008)
Potency means the concentration at half of the fitted maximal effect; tags describe the fitted curve by direction and shape.
